PubChem BioAssay (NCI)
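Five compound concentrations were applied to cells in 96-well plates for 48 hours; endpoints were derived by simple linear interpolation of the resulting dose-response curve. GI50 = concentration required for 50% inhibition of growth. The concentration for full growth arrest is given as TGI.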

System: NCI-H322M lung
Experiment: DTP human tumour cell line panel, 48 h

Q: Which results are given for `Nc1ncc(-c2ccc3ncnc(N4CCc5cc(F)c(Cl)cc54)c3c2)cc1CO`?
A: GI50: 310 nM; TGI: 2860 nM
